Test results from PubChem BioAssay (Tox21).
Values joined by “and” are separate entries in the source; they are usually repeats but may differ in a detail not shown here. Identical values can stand only once. Inconclusive results, whose numbers are uncertain, are shown with a selection of clear calls. Where the call is inconclusive, the potency comes from a doubtful curve fit. Where a structure was tested more than once in an assay, its records may differ in their call. Active and inactive are the calls of the source. Calls come from the whole dose curve; as a rule, active = well fitted curve in the direction sought with a large enough effect in the repeat runs; inconclusive = weak or mixed curves; inactive = no such curve, though single readings can be large; an effect the other way counts as inactive or inconclusive.

Experiments:
[1] = qHTS RealTime-Glo MT Cell Viability Assay in HEK293 cells - 16 hour (AID 1224872); settings: RealTime-Glo luminescence; series mostly up to 76.8 µM; note: nearly all actives have a fitted effect of over 50% in size
Summary of the method: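 Cells + reagent dispensed (600 cells/well, HEK293) → 5 h at 37 C/5% CO2 → 23 nL compound in DMSO pinned → 40 h at 37 C → luminescence read at 0, 8, 16, 24, 32, 40 h.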

[2] = qHTS RealTime-Glo MT Cell Viability Assay in HEK293 cells - 40 hour (AID 1224874); settings: RealTime-Glo luminescence; max response: hits give low values; note: nearly all actives have a fitted effect of over 50% in size; for max response: % is set by controls: 0 for no effect and ±100 for the full control effect
Summary of the method: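 Real-time viability in HEK293: signal arises when living cells convert a prosubstrate for NanoLuc in the medium, so luminescence tracks viable cell number. Compound (23 nL, DMSO) added 5 h post-seeding; kinetic reads at 0–40 h, 37 C.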

[3] = A CellTox Green Cytotoxicity Assay to monitor cytotoxicity in HepG2 cells - 40 hour (AID 1224879); settings: CellTox Green fluorescence; series mostly up to 76.8 µM; note: nearly all actives have a fitted effect of over 40% in size
Summary of the method: (§1)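 Cells and non-lytic dye reagent are dispensed together (600 HepG2 cells/well) and incubated 5 h before DMSO compound transfer. Kinetic fluorescence is then recorded in the same wells during 40 h at 37 C.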

[4] = A CellTox Green Cytotoxicity Assay to monitor cytotoxicity in HepG2 cells - 16 hour (AID 1224876); settings: CellTox Green fluorescence; series mostly up to 76.8 µM; note: nearly all actives have a fitted effect of over 45% in size
Summary of the method: as §1

[5] = A CellTox Green Cytotoxicity Assay to monitor cytotoxicity in HepG2 cells - 24 hour (AID 1224878); settings: CellTox Green fluorescence; series mostly up to 76.8 µM; note: nearly all actives have a fitted effect of over 45% in size; for Cytotoxicity: % is set by controls: 0 for no effect and ±100 for the full control effect
Summary of the method: as §1

[6] = A CellTox Green Cytotoxicity Assay to monitor cytotoxicity in HEK293 cells - 24 hour (AID 1224875); settings: CellTox Green fluorescence; series mostly up to 76.8 µM; note: nearly all actives have a fitted effect of over 45% in size
Summary of the method: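 Cells (HEK293, 600/well) and dye reagent are dispensed together. After 5 h at 37 C, 23 nL compound is pinned in. Plates stay at 37 C for 40 h with fluorescence read at 0h, 8h, 16h, 24h, 32h and 40h.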

[7] = qHTS RealTime-Glo MT Cell Viability Assay in HepG2 cells - 32 hour (AID 1224877); settings: RealTime-Glo luminescence; series mostly up to 76.8 µM; note: nearly all actives have a fitted effect of over 55% in size
Summary of the method: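 Real-time, nonlytic viability: 600 HepG2 cells/well mixed with NanoLuc enzyme plus prosubstrate; 5 h settle, compound (DMSO) added by pintool; luminescence monitored over 40 h at 37 C.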

[8] = qHTS RealTime-Glo MT Cell Viability Assay in HepG2 cells - 8 hour (AID 1224873); settings: RealTime-Glo luminescence; series mostly up to 76.8 µM; note: nearly all actives have a fitted effect of over 55% in size
Summary of the method: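 HepG2 cells mixed with RealTime-Glo MT reagents (NanoLuc plus cell-permeant prosubstrate) were seeded at 600 cells/well, incubated 5 h at 37 C/5% CO2, then pinned with compounds in DMSO; nonlytic luminescence tracked viability during 40 h treatment.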
Potency is the fitted concentration of half-maximal effect; tags give direction and shape of the fitted curve.

COc1cccc([C@H](O)C2CCN(CCc3ccc(F)cc3)CC2)c1OC
Potency [1]: inconclusive: 61.6 µM [cytotoxic, partial curve, poor fit]
Potency [2]: inconclusive: 24.5 µM [cytotoxic, partial curve]
Potency [3]: inconclusive: 54.9 µM [activator, partial curve, poor fit]

Cc1cccc(Oc2ccccc2)c1
Potency [1]: inconclusive: 60.1 µM [cytotoxic, single point]
Potency [4]: inactive
Potency [5]: inconclusive: 42.6 µM [activator, partial curve]

NNc1ccc(C(=O)O)cc1
Potency [1]: inactive
Potency [2]: inconclusive: 49.5 µM [rising, partial curve]

COc1cc2c(c(OC)c1OC)-c1ccc(OC)c(=O)cc1[C@@H](NC(C)=O)CC2
Potency [1]: inconclusive: 0.0966 µM [cytotoxic, partial curve, poor fit]
Potency [2]: inconclusive: 15.5 nM [cytotoxic, full curve] and inconclusive: 2.7 nM [cytotoxic, full curve]
Potency [5]: inconclusive: 54.3 µM [activator, single point]

CC(C)c1ccc(C#N)cc1
Potency [1]: inconclusive: 21.9 µM [cytotoxic, partial curve]
Potency [2]: active: 15.5 µM
Potency [4]: inconclusive: 34.7 µM [activator, partial curve]
Potency [5]: inconclusive: 34.7 µM [activator, partial curve, poor fit]

CCOC(=O)NCCOc1ccc(Oc2ccccc2)cc1
Potency [1]: inconclusive: 21.9 µM [cytotoxic, partial curve]
Potency [2]: active: 21.9 µM
Potency [5]: inactive

CCCCCOc1ccccc1/C(=C\SC)n1ccnc1
Potency [1]: inconclusive: 16.9 µM [cytotoxic, partial curve]
Potency [2]: inconclusive: 19 µM [cytotoxic, partial curve]
Potency [3]: inconclusive: 10.7 µM [activator, partial curve]

Nc1nc2ccccc2n1Cc1ccc(F)cc1
Potency [1]: inconclusive: 2.68 µM [cytotoxic, full curve]
Potency [2]: inconclusive: 8.49 µM [cytotoxic, partial curve]
Potency [5]: inconclusive: 21.3 µM [activator, single point]

CCCCc1nc2cccnc2n1Cc1ccc(-c2ccccc2-c2nnn[nH]2)cc1
Potency [1]: inconclusive: 17.4 µM [cytotoxic, full curve]
Potency [2]: inconclusive: 15.5 µM [cytotoxic, partial curve]

Clc1ccc2cc3ccccc3cc2c1
Potency [1]: inconclusive: 61.6 µM [rising, single point]
Potency [2]: inconclusive: 61.6 µM [rising, single point]
Potency [3]: inconclusive: 54.9 µM [activator, single point]

O=c1cc(-c2ccc(O)cc2)oc2cc(O)cc(O)c12
Potency [1]: inconclusive: 49.6 µM [cytotoxic, single point] and inconclusive: 24.5 µM [cytotoxic, partial curve]
Potency [2]: inconclusive: 55.7 µM [cytotoxic, single point] and inconclusive: 19.5 µM [cytotoxic, partial curve]
Potency [6]: inconclusive: 24.5 µM [activator, partial curve, poor fit]
Potency [4]: active: 27.5 µM
Potency [3]: inconclusive: 62.5 µM [activator, single point]

CCC(C)CO (stereo not given)
Potency [1]: inconclusive: 24.5 µM [cytotoxic, partial curve]
Potency [2]: active: 24.5 µM
max response [2]: inactive: 4.66%
Potency [4]: active: 38.9 µM
Potency [3]: active: 43.6 µM

CCN(CCCc1ccccc1)CCCc1ccccc1
Potency [1]: inconclusive: 21.3 µM [cytotoxic, partial curve]
Potency [2]: inconclusive: 26.8 µM [cytotoxic, partial curve]
Potency [3]: inconclusive: 23.9 µM [activator, partial curve, poor fit]

C1CCOC1
Potency [1]: inactive
Potency [6]: inactive

CC(=O)Oc1ccc(C(c2ccc(OC(C)=O)cc2)c2ccccn2)cc1
Potency [1]: inconclusive: 54.6 µM [cytotoxic, single point]
Potency [2]: inconclusive: 48.7 µM [cytotoxic, single point]
Potency [3]: inactive

CCCCCCCC/C=C\CCCCCCCC(=O)NCc1ccc(O)c(OC)c1
Potency [1]: active: 1.69 µM
Potency [2]: active: 4.25 µM

CCCCC(CC)CN1C(=O)C2C3C=CC(C3)C2C1=O (stereo not given)
Potency [1]: inconclusive: 19.5 µM [cytotoxic, full curve]
Potency [2]: inconclusive: 21.9 µM [cytotoxic, partial curve]
Potency [6]: inconclusive: 19.5 µM [activator, partial curve, poor fit]

COc1ccc(/C=C/c2cc(OC)cc(=O)o2)cc1
Potency [1]: inconclusive: 7.95 µM [cytotoxic, full curve, poor fit]
Potency [2]: active: 8.92 µM
Potency [5]: inactive

CC(C)(C)c1cc(O)c(C(C)(C)C)cc1O
Potency [1]: active: 17.4 µM
Potency [4]: inconclusive: 0.245 µM [activator, partial curve]
Potency [5]: inconclusive: 0.245 µM [activator, partial curve]

COCCCC/C(=N\OCCN)c1ccc(C(F)(F)F)cc1
Potency [1]: inconclusive: 10.7 µM [cytotoxic, partial curve]
Potency [2]: inconclusive: 10.7 µM [cytotoxic, partial curve]
Potency [4]: inconclusive: 26.8 µM [activator, single point]
Potency [7]: inconclusive: 23.9 µM [cytotoxic, partial curve, poor fit]
Potency [5]: inconclusive: 26.8 µM [activator, single point]

CCCCCCCC/C=C\CCCCCCCC(=O)N(C)CC(=O)O
Potency [1]: inconclusive: 49 µM [cytotoxic, partial curve, poor fit]
Potency [2]: inconclusive: 54.9 µM [cytotoxic, partial curve]
Potency [5]: inconclusive: 38.9 µM [activator, partial curve, poor fit]
Potency [3]: inconclusive: 34.7 µM [activator, partial curve, poor fit]

CCOc1ccc(N)c([N+](=O)[O-])c1
Potency [1]: inconclusive: 61.6 µM [cytotoxic, single point]
Potency [2]: inconclusive: 43.6 µM [cytotoxic, partial curve, poor fit]
Potency [6]: inactive
Potency [3]: inactive

CN1C[C@H]2c3ccccc3Oc3ccc(Cl)cc3[C@@H]2C1
Potency [1]: inactive
Potency [4]: inconclusive: 26.8 µM [activator, single point]
Potency [5]: inconclusive: 26.8 µM [activator, single point]
Potency [3]: active: 26.8 µM

Nc1ncn([C@@H]2O[C@H](CO)[C@@H](O)[C@H]2O)c(=O)n1
Potency [1]: inconclusive: 30.9 µM [cytotoxic, partial curve]
max response [2]: inactive: -27.7% and inactive: 4.66%
Potency [6]: inactive

CCOC(=O)COc1ccc2c(C)c(CCN(CC)CC)c(=O)oc2c1Cl
Potency [1]: inconclusive: 21.3 µM [cytotoxic, partial curve, poor fit]
Potency [6]: inactive

CC(=O)Nc1ncc([N+](=O)[O-])s1
Potency [1]: inactive
Potency [4]: inconclusive: 0.952 µM [activator, single point]

O=C(OCCCCCCOC(=O)c1ccccc1)c1ccccc1
Potency [1]: inconclusive: 49 µM [cytotoxic, single point]
Potency [2]: inconclusive: 54.9 µM [cytotoxic, single point]

Cc1cc2c(cc1C(F)(F)F)N(C(=O)Nc1ccc(Oc3cccnc3C)nc1)CC2
Potency [1]: inconclusive: 5.58 µM [cytotoxic, full curve]
Potency [7]: inconclusive: 19.8 µM [cytotoxic, partial curve, poor fit]
Potency [5]: inconclusive: 55.8 µM [activator, partial curve, poor fit]
Potency [3]: inconclusive: 55.8 µM [activator, partial curve, poor fit]

O=C(O)c1cc(N=Nc2ccc([N+](=O)[O-])cc2)ccc1O
Potency [8]: inactive

CC(C)CCOC(=O)/C=C/c1ccccc1
Potency [8]: inactive

Cc1cccc(N(C)C(=S)Oc2ccc3ccccc3c2)c1
Potency [8]: inconclusive: 38.9 µM [falling, partial curve]

CCCCCCCCCCCCCCCCOP(=O)([O-])OCC[N+](C)(C)C
Potency [1]: inactive
Potency [4]: inconclusive: 26.8 µM [activator, single point]
Potency [5]: inconclusive: 26.8 µM [activator, single point]
Potency [3]: inconclusive: 26.8 µM [activator, single point]

C=CC(=O)Nc1cc2c(Nc3ccc(F)c(Cl)c3)ncnc2cc1OCCCN1CCOCC1
Potency [8]: inconclusive: 4.77 µM [falling, partial curve]
Potency [5]: active: 10.7 µM

Cc1[nH]c(=O)c(C#N)cc1-c1ccncc1
Potency [1]: inconclusive: 49 µM [cytotoxic, partial curve, poor fit]
Potency [4]: inconclusive: 24.5 µM [activator, single point]
Potency [5]: inconclusive: 21.9 µM [activator, single point]
Potency [3]: inconclusive: 21.9 µM [activator, single point]

O=C1C=CC(=O)N1
Potency [8]: active: 44.8 µM
Potency [2]: active: 11.3 µM
Potency [6]: active: 20 µM
Potency [7]: active: 22.5 µM

CC(C)NCC(O)COc1cccc2[nH]ccc12 (stereo not given)
Potency [8]: inactive

CCCCOCCOC(=O)COc1nc(Cl)c(Cl)cc1Cl
Potency [8]: inconclusive: 21.9 µM [falling, single point]

c1c[nH]cn1
Potency [8]: inactive

Nc1ccccc1S(=O)(=O)c1ccccc1
Potency [8]: inactive
Potency [5]: inactive
